Assay results from PubChem BioAssay AID493208 (National Center for Advancing Translational Sciences (NCATS), 2011).
Among all 44,000 compounds or so, about 340 (0.77%) were called active. Roughly 5% stayed inconclusive and do not appear here. Calls follow the shape of the dose curve; as a rule, active = well fitted inhibition curve with a large enough effect; inconclusive = small, poorly fitted or top-dose-only effect; inactive = flat fitted curve, though single readings scatter. Some of the results follow.

Assay: Acumen qHTS Assay for Inhibitors of the mTORC1 Signaling Pathway in MEF (Tsc2-/-, p53-/-) Cells: Sytravon;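 also: plate controls were DMSO for no effect and rapamycin for full effect; nearly all actives have a fitted effect of over 50% in size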
Conditions: phospho-rpS6 immunofluorescence/PI, 24 h; series mostly up to 38.3 µM; activity change, negative = inhibition: at the top concentration
Procedure, shortened: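 Tsc2-/-, p53-/- mouse embryonic fibroblasts (empty-vector line) exposed to compound 24 hrs at 37 C, fixed, immunostained for phospho-rpS6 and counterstained with propidium iodide. Acumen laser scanning gives % positive cells from Alexa 488/PI ratio, thresholded using 7.5 nM rapamycin; PI count gives viability.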

Activity change, negative = inhibition, inactive:
COc1ccc(C2CC(=O)N(Cc3ccc(F)cc3)c3ccccc3S2)cc1 (stereo unspecified) 0.338%, Cc1ccc(S(=O)(=O)N2CCN(Cc3noc(CCC(=O)N4CCCCC4)n3)CC2)c(C)c1 -10.8%, Cc1nc(Nc2ccc(Cl)cc2)cc(-c2ccccc2)n1 -12.1%, CCOc1ccc(NC(=O)CC2C(=O)N(c3ccccc3)C(=O)N2C2CCCCC2)cc1 (stereo unspecified) -16.5%, COc1ccccc1CNC(=O)NCc1noc2ccc(C)cc12 3.15%, O=c1c2cn[nH]c2nc(SCc2cccc(Br)c2)n1-c1ccc(Cl)cc1 -15.2%, Cc1ccn2c(Nc3ccc4c(c3)OCO4)c(-c3ccc(N(C)C)cc3)nc2c1 6.07%, COc1ccc(CNC(=O)c2nc(SC(C)C)ncc2Cl)cc1 -7.25%, Cc1nc2ccc(S(=O)(=O)CCC(=O)Nc3ccc(C)c(C)c3)cc2s1 -2.48%, CCOC(=O)c1c(-c2ccccc2)csc1NC(=O)c1cc(-c2ccc(Br)cc2)on1 -18.9%, CCOc1ccc(CCNC(=O)CCc2c(C)nc3c(-c4ccccc4)c(C)nn3c2C)cc1OCC -6.57%, CCOc1ccc(C2=NC(c3ccc(OC)cc3)=Nc3ccc(Cl)cc3N2)cc1 5.06%, C=CCC(CC=C)(CNC(=O)C(=O)Nc1cc(C)ccc1OC)c1ccc(OC)c(OC)c1 4.35%, O=C(Cn1cc(S(=O)(=O)N2CCCC2)c(S(=O)(=O)N2CCCC2)c1)Nc1cccc(F)c1 -7.12%, COc1ccccc1CNC(=O)CN1C(=O)COc2ccc(S(=O)(=O)N3CCC(C)CC3)cc21 -1.14%, CCc1ccc(NC(=O)C(C)n2nnc3sc(-c4ccccc4)cc3c2=O)cc1 (stereo unspecified) -3.98%, COc1ccc(NC(=O)/C(C#N)=C/c2cc(C)n(-c3ccc(F)cc3)c2C)cc1 0.913%, CCOC(=O)c1cccc(NC(=O)C2CCCN(S(=O)(=O)c3ccc4c(c3)oc(=O)n4C)C2)c1 (stereo unspecified) -8.27%, CC(C)C(=O)N(Cc1ccccc1)S(=O)(=O)c1ccc2c(c1)oc(=O)n2C -8.95%, Cc1nc2nc(SCC(=O)O)nn2c(C)c1Cc1c(F)cccc1Cl 14.2%, Cc1ccc(CN(C(=O)COc2ccc(Cl)c(C)c2)C2CCS(=O)(=O)C2)o1 (stereo unspecified) 2.52%, Cc1csc2nc(COC(=O)c3ccccc3NC(=O)COc3ccccc3F)cc(=O)n12 0%, Cc1ccc(Cl)cc1NC(=O)Cn1c(=O)n(CCCS(=O)(=O)C2CCCCC2)c(=O)c2ccccc21 -12.2%, COc1ccc(-c2c3c(=O)n(C)c(=O)n(C)c3c3c(-c4cccc(C)c4)nc4ccccc4n23)cc1 -3.85%, COc1ccc(S(=O)(=O)NCCCO)cc1-c1nnc2c3ccccc3c(C)nn12 -11.4%, COc1ccc2cc3cc(C(=O)N4CCN(c5cccc(Cl)c5)CC4)sc3nc2c1 1.79%
